# Test results taken from a collection of fitness landscapes (doi:10.1016/j.celrep.2020.107928).
# The full ranking holds about 81,000 sequences; the median of “one-hybrid fitness for binding parS DNA” is about -0.17, and the highest 2% start at about 0.51. The list shows a part of the results.
# B1: Caulobacter ParB omega fusion; a variant is named by its letters at X, in order, B8GW30 (parent)
# chain: MESVVVGEPGMSEGRRGLGRGLSALLGEVDAAPAQAPGEQLGGSREAPIEILQRNPDQPRRTFREEDLEDLSNSIREKGVLQPILVRPSPDTAGEYQIVAGERAWRAAQRAGLKTVPIMVRELDDLAVLEIGIIENVQRADLNVLEEALSYKVLMEKFERTQENIAQTIGKSXSHVANXMRLLXLPDEVQSYLVSGELTAXHARAIAAAADPVALAKQIIEGGLSVRETEALARKAPNLSAGKSKGGRPPRVKDTDTQALESDLSSVLGLDVSIDHRGSTGTLTITYATLEQLDDLCNRLTRGI
# Variants of: B1
# Assay: one-hybrid fitness for binding parS DNA (scaled: cognate 1, non-cognate 0); higher = stronger binding
# Details: with parS DNA site
# In short: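 Fitness here means the log change in variant-to-wild-type read ratio between plasmids sequenced before and after selection. That scale was set so cognate equals 1 and non-cognate equals 0. The selection was a bacterial one-hybrid screen of Caulobacter ParB libraries, four specificity codons randomised, in E. coli USO carrying a HIS3 reporter with the site 19 bp from the promoter, grown 48 hours at 37°C on M9-minus-histidine with 0.1 mM IPTG and 5 mM 3-AT.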
row,Variant,one-hybrid fitness for binding parS DNA
1,NILE,≤ 0.2
2,RCKG,0.89
3,STNW,≤ 0.2
4,SRYN,≤ 0.2
5,DSLR,≤ 0.2
6,HYMG,≤ 0.2
7,DMWG,≤ 0.2
8,KAIE,≤ 0.2
9,YDPD,≤ 0.2
10,RITD,≤ 0.2
11,YQRT,≤ 0.2
12,HQEM,≤ 0.2
13,ANSR,≤ 0.2
14,WPQT,≤ 0.2
15,DQVW,≤ 0.2
16,QQTA,≤ 0.2
17,RHTL,≤ 0.2
18,KTYC,≤ 0.2
19,HCLW,≤ 0.2
20,DCIF,≤ 0.2
21,PDVP,≤ 0.2
22,VTPI,≤ 0.2
23,FNRS,≤ 0.2
24,SEMR,≤ 0.2
25,MISG,≤ 0.2
26,WDGR,≤ 0.2

row,Variant,one-hybrid fitness for binding parS DNA
1,GGDQ,≤ 0.2
2,DVDY,≤ 0.2
3,EHIR,≤ 0.2
4,TKTR,≤ 0.2
5,QKEW,≤ 0.2
6,RIFN,0.438
7,SRQS,≤ 0.2
8,LIPS,≤ 0.2
9,IRDN,≤ 0.2
10,PLHY,≤ 0.2
11,QVSP,≤ 0.2
12,QMVR,≤ 0.2
13,KFCC,≤ 0.2
14,LQHE,≤ 0.2
15,HAMC,≤ 0.2
16,QDVH,≤ 0.2
17,VAIG,≤ 0.2
18,CAPE,≤ 0.2
19,MLNG,≤ 0.2
20,YKYT,≤ 0.2
21,MEAF,≤ 0.2
22,TRMK,≤ 0.2
23,PADM,≤ 0.2
24,EVWG,≤ 0.2
25,NCSN,≤ 0.2
26,EFEG,≤ 0.2

row,Variant,one-hybrid fitness for binding parS DNA
1,KETR,≤ 0.2
2,QGMC,≤ 0.2
3,QKVK,≤ 0.2
4,SHRG,≤ 0.2
5,INTV,≤ 0.2
6,SAGR,≤ 0.2
7,QTVT,≤ 0.2
8,KVVM,≤ 0.2
9,PLWG,≤ 0.2
10,KLKY,≤ 0.2
11,QKSP,≤ 0.2
12,FNAT,≤ 0.2
13,PEST,≤ 0.2
14,YGES,≤ 0.2
15,QRSN,≤ 0.2
16,EPLM,≤ 0.2
17,FDPR,≤ 0.2
18,TCIV,≤ 0.2
19,KSAQ,0.228
20,YSNS,≤ 0.2
21,PDKW,≤ 0.2
22,RCCL,≤ 0.2
23,YYWC,≤ 0.2
24,YGQL,≤ 0.2
25,PPLR,≤ 0.2
